{"source": "the BET-seq Pho4 binding data (Le et al. 2018)", "note": "The other results are listed elsewhere or left out. The energies were worked out here from pooled read counts, against the library average; single values are noisy."}
{"target": "T1, Pho4 (S. cerevisiae) (UniProt P07270)", "T1 sequence": "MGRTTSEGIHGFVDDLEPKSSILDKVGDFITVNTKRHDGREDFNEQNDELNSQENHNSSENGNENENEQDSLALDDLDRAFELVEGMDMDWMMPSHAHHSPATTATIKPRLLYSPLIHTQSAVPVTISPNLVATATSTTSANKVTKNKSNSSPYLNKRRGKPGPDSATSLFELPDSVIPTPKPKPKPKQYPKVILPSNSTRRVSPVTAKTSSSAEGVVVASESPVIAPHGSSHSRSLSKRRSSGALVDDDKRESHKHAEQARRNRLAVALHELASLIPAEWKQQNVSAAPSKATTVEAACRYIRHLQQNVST", "test": "relative binding free energy (BET-seq); higher = weaker binding", "conditions": "reference: library average", "units": {"relative binding free energy": "kcal/mol"}}
{"sequence": "CATGGCACGTGGGGTC", "relative binding free energy": -0.21}
{"sequence": "GGTGTCACGTGCTGGT", "relative binding free energy": 0.15}
{"sequence": "GGTAGCACGTGGATCG", "relative binding free energy": 0.11}
{"sequence": "AGCGACACGTGAAGGT", "relative binding free energy": 0.31}
{"sequence": "TTCGCCACGTGGGGCG", "relative binding free energy": -0.14}
{"sequence": "TATTACACGTGTTATC", "relative binding free energy": 0.21}
{"sequence": "GGGTGCACGTGTTCGG", "relative binding free energy": 0.1}
{"sequence": "AATATCACGTGGGACT", "relative binding free energy": 0.17}
{"sequence": "ATGTACACGTGTCTGT", "relative binding free energy": 0.09}
{"sequence": "ATGAGCACGTGTGTTT", "relative binding free energy": -0.09}
{"sequence": "GATGTCACGTGGGTGG", "relative binding free energy": 0.01}
{"sequence": "TTGGACACGTGGACAT", "relative binding free energy": 0.08}
{"sequence": "TCTGGCACGTGCTTGG", "relative binding free energy": -0.11}
{"sequence": "TAGGTCACGTGGGAGG", "relative binding free energy": 0.04}
{"sequence": "GTTTTCACGTGAGTCG", "relative binding free energy": 0.28}
{"sequence": "GTGTTCACGTGCGTGT", "relative binding free energy": 0.3}
{"sequence": "GTAATCACGTGTGAAT", "relative binding free energy": 0.06}
{"sequence": "GAGAACACGTGGTTTT", "relative binding free energy": 0.11}
{"sequence": "GTAAGCACGTGGGGGG", "relative binding free energy": -0.17}
{"sequence": "TATGTCACGTGAACTT", "relative binding free energy": 0.29}
{"sequence": "CTAAGCACGTGTGGGT", "relative binding free energy": 0}
{"sequence": "CGTTGCACGTGTAAGG", "relative binding free energy": 0.12}
{"sequence": "GATGCCACGTGGAGGT", "relative binding free energy": -0.06}
{"sequence": "AGTGCCACGTGAGTGT", "relative binding free energy": 0.1}
{"sequence": "TCTGTCACGTGTTTCT", "relative binding free energy": 0.1}
{"sequence": "GTGTACACGTGGTACT", "relative binding free energy": 0.07}
{"sequence": "TGATCCACGTGTTTGT", "relative binding free energy": 0.08}
{"sequence": "TTAAGCACGTGGTGGC", "relative binding free energy": -0.1}
{"sequence": "TCTTTCACGTGTCGGG", "relative binding free energy": 0.3}
{"sequence": "TGAAGCACGTGATTTT", "relative binding free energy": 0.09}
{"sequence": "TATTTCACGTGTTGAG", "relative binding free energy": 0.32}
{"sequence": "GGCGCCACGTGGTGTA", "relative binding free energy": -0.04}
{"sequence": "GGGGGCACGTGGCCGC", "relative binding free energy": -0.27}
{"sequence": "TTTCACACGTGAAGTG", "relative binding free energy": 0.23}
{"sequence": "GGGCTCACGTGAGGGT", "relative binding free energy": 0.44}
{"sequence": "TGGTTCACGTGGGAAG", "relative binding free energy": 0.21}
{"sequence": "GGTAACACGTGGATAT", "relative binding free energy": 0.17}
{"sequence": "AATATCACGTGGGTTC", "relative binding free energy": 0.05}
{"sequence": "GCAGTCACGTGGGCTG", "relative binding free energy": 0.09}
{"sequence": "ATCGGCACGTGTCATG", "relative binding free energy": 0.03}
{"sequence": "AATAGCACGTGGTGGG", "relative binding free energy": -0.2}
{"sequence": "GAATTCACGTGTTTTC", "relative binding free energy": 0.42}
{"sequence": "TGTTGCACGTGGATCG", "relative binding free energy": -0.02}
{"sequence": "AATGGCACGTGGCTTA", "relative binding free energy": -0.08}
{"sequence": "GGGTGCACGTGTAACA", "relative binding free energy": 0.11}
{"sequence": "TTGATCACGTGTGTTC", "relative binding free energy": 0.18}
{"sequence": "GGGTACACGTGGGATC", "relative binding free energy": -0.02}
{"sequence": "ATGGCCACGTGCAGGT", "relative binding free energy": -0.16}
{"sequence": "GTGTACACGTGTAGAG", "relative binding free energy": 0.06}
{"sequence": "GGAGCCACGTGACGGG", "relative binding free energy": 0.06}
{"sequence": "GGTTTCACGTGGATTG", "relative binding free energy": 0.35}
{"sequence": "CTTAGCACGTGTTGTG", "relative binding free energy": -0.12}
{"sequence": "AGAGACACGTGAGGTG", "relative binding free energy": 0.2}
{"sequence": "CGTGACACGTGGGGCT", "relative binding free energy": -0.15}
{"sequence": "TTTTGCACGTGCAAGG", "relative binding free energy": -0.1}
{"sequence": "TAGAACACGTGTTGGC", "relative binding free energy": 0.02}
{"sequence": "TTGGCCACGTGTAGTA", "relative binding free energy": -0.03}
{"sequence": "TTTGACACGTGGTAAG", "relative binding free energy": -0.07}
{"sequence": "GGAGTCACGTGGAGAA", "relative binding free energy": 0.2}
{"sequence": "CAATGCACGTGTGGAG", "relative binding free energy": 0.06}
{"sequence": "TATGTCACGTGCTGGT", "relative binding free energy": 0.03}
{"sequence": "GTAGACACGTGGGATA", "relative binding free energy": -0.09}
{"sequence": "TTAACCACGTGTGGGT", "relative binding free energy": 0.01}
{"sequence": "TGGTTCACGTGTCTGT", "relative binding free energy": 0.26}
{"sequence": "GGAGGCACGTGAGCAT", "relative binding free energy": 0.14}
{"sequence": "ATTAACACGTGTGGGG", "relative binding free energy": 0.02}
{"sequence": "CTGTTCACGTGTAGTA", "relative binding free energy": 0.36}
{"sequence": "TTCAGCACGTGCGGTT", "relative binding free energy": -0.11}
{"sequence": "TTAACCACGTGGGTTA", "relative binding free energy": -0.22}
{"sequence": "GTATGCACGTGTCTTT", "relative binding free energy": -0.07}
{"sequence": "ATCGTCACGTGGATTT", "relative binding free energy": 0.18}
{"sequence": "AGGTGCACGTGGAGGC", "relative binding free energy": -0.12}
{"sequence": "TCAGGCACGTGTACGG", "relative binding free energy": 0.09}
{"sequence": "TGTGTCACGTGTGCGA", "relative binding free energy": -0.06}
{"sequence": "AAGTGCACGTGGATGT", "relative binding free energy": -0.12}
{"sequence": "GAAGTCACGTGGTGAG", "relative binding free energy": 0.19}
{"sequence": "GTAGTCACGTGTGGAG", "relative binding free energy": 0.14}
{"sequence": "TCTTTCACGTGAGGAT", "relative binding free energy": 0.35}
{"sequence": "TGCGTCACGTGATTGA", "relative binding free energy": 0.11}
{"sequence": "TGCCGCACGTGGTGGA", "relative binding free energy": -0.14}
{"sequence": "CTCTTCACGTGGGTGA", "relative binding free energy": 0.32}
{"sequence": "GGTTGCACGTGAGTTC", "relative binding free energy": 0.31}
{"sequence": "TACGTCACGTGTCGGG", "relative binding free energy": 0.1}
{"sequence": "CTGTGCACGTGCTGTG", "relative binding free energy": -0.19}
{"sequence": "ATTTACACGTGAAGCT", "relative binding free energy": 0.24}
{"sequence": "GAATGCACGTGCAGGG", "relative binding free energy": 0}
{"sequence": "GTTTGCACGTGAGGAG", "relative binding free energy": 0.27}
{"sequence": "GGTTGCACGTGGGCGC", "relative binding free energy": -0.02}
{"sequence": "GGGTCCACGTGTTTGG", "relative binding free energy": 0.15}
{"sequence": "GGGTTCACGTGAGGAC", "relative binding free energy": 0.56}
{"sequence": "TGTATCACGTGCGGTT", "relative binding free energy": 0.08}
{"sequence": "CATATCACGTGGTTAT", "relative binding free energy": 0.1}
{"sequence": "TGTTACACGTGTGTTT", "relative binding free energy": 0.17}
{"sequence": "ATTGTCACGTGTGCCG", "relative binding free energy": 0.13}
{"sequence": "GAAGTCACGTGGTGTC", "relative binding free energy": 0.11}
{"sequence": "CGTTTCACGTGACGGG", "relative binding free energy": 0.18}
{"sequence": "GGGTTCACGTGAAATA", "relative binding free energy": 0.34}
{"sequence": "TATGTCACGTGAAGTT", "relative binding free energy": 0.28}
{"sequence": "TTTTGCACGTGGCTAT", "relative binding free energy": -0.19}
{"sequence": "TTAGACACGTGATGAG", "relative binding free energy": 0.08}
{"sequence": "GTGCACACGTGTTTGG", "relative binding free energy": 0.14}
{"sequence": "TGGAACACGTGGTCAG", "relative binding free energy": -0.01}
{"sequence": "AGGTGCACGTGGAATT", "relative binding free energy": 0.03}
{"sequence": "CGTGACACGTGGGAAG", "relative binding free energy": -0.09}
{"sequence": "ATTTGCACGTGATTTG", "relative binding free energy": 0.03}
{"sequence": "TTAAGCACGTGTGTTT", "relative binding free energy": -0.09}
{"sequence": "ATGTGCACGTGAAGAG", "relative binding free energy": 0.24}
{"sequence": "GGTAGCACGTGTTAAA", "relative binding free energy": 0.04}
{"sequence": "GGAAGCACGTGCAGTG", "relative binding free energy": 0}
{"sequence": "CTTTGCACGTGAGGAG", "relative binding free energy": 0.26}
{"sequence": "GCGTTCACGTGGAGGA", "relative binding free energy": 0.24}
{"sequence": "ATTGGCACGTGGTAGC", "relative binding free energy": -0.21}
{"sequence": "CTTATCACGTGGCTTT", "relative binding free energy": 0.18}
{"sequence": "CTTTTCACGTGGTCTT", "relative binding free energy": 0.21}
{"sequence": "CCGCGCACGTGGGTGG", "relative binding free energy": -0.19}
